# Some of the results follow.
# Tests used:
# Experiment in all cases: glycan array binding signal (z-score within array); higher = stronger binding
# Details in all cases: glycan notation: IUPAC condensed, linker removed
# [1] = target: Neu5Ac(a2-3)Gal(b1-4)GlcNAc(b1-2)[Neu5Ac(a2-3)Gal(b1-4)GlcNAc(b1-4)]Man(a1-3)[GlcNAc(b1-4)][Neu5Ac(a2-3)Gal(b1-4)GlcNAc(b1-2)[Neu5Ac(a2-3)Gal(b1-4)GlcNAc(b1-6)]Man(a1-6)]Man(b1-4)GlcNAc(b1-4)GlcNAc
# In short: (§1)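 Glycan array data were curated from 3228 arrays in the Consortium for Functional Glycomics database and kept only where the protein sequence was available. Glycan names were converted to IUPAC-condensed notation, and columns mapping to the same glycan were averaged. The binding signal is a within-array Z-score, averaged across arrays of the same protein sequence at different concentrations or buffers and across linkers. Negative Z-scores can be read as non-binding.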
# [2] = target: Neu5Ac(a2-3)Gal(b1-4)GlcNAc(b1-2)[Neu5Ac(a2-3)Gal(b1-4)GlcNAc(b1-4)]Man(a1-3)[GlcNAc(b1-4)][Neu5Ac(a2-3)Gal(b1-4)GlcNAc(b1-4)Man(a1-6)]Man(b1-4)GlcNAc(b1-4)GlcNAc
# In short: as §1
# [3] = target: Neu5Ac(a2-3)Gal(b1-4)GlcNAc(b1-2)[Neu5Ac(a2-3)Gal(b1-4)GlcNAc(b1-6)]Man(a1-6)[Neu5Ac(a2-3)Gal(b1-4)GlcNAc(b1-2)Man(a1-3)][GlcNAc(b1-4)]Man(b1-4)GlcNAc(b1-4)GlcNAc
# In short: as §1
# [4] = target: Neu5Ac(a2-3)Gal(b1-4)GlcNAc(b1-3)Gal
# In short: as §1
# [5] = target: Neu5Ac(a2-3)Gal(b1-4)GlcNAc(b1-3)Gal(b1-3)GlcNAc
# In short: as §1
# [6] = target: Neu5Ac(a2-3)Gal(b1-4)GlcNAc(b1-3)Gal(b1-4)GlcNAc
# In short: as §1
# [7] = target: Neu5Ac(a2-3)Gal(b1-4)GlcNAc(b1-3)Gal(b1-4)GlcNAc(b1-2)Man(a1-3)[Neu5Ac(a2-3)Gal(b1-4)GlcNAc(b1-3)Gal(b1-4)GlcNAc(b1-2)Man(a1-6)]Man(b1-4)GlcNAc(b1-4)GlcNAc
# In short: as §1
# [8] = target: Neu5Ac(a2-3)Gal(b1-4)GlcNAc(b1-3)Gal(b1-4)GlcNAc(b1-3)Gal(b1-4)GlcNAc
# In short: as §1
# [9] = target: Neu5Ac(a2-3)Gal(b1-4)GlcNAc(b1-3)Gal(b1-4)GlcNAc(b1-3)Gal(b1-4)GlcNAc(b1-2)Man(a1-3)[Neu5Ac(a2-3)Gal(b1-4)GlcNAc(b1-3)Gal(b1-4)GlcNAc(b1-3)Gal(b1-4)GlcNAc(b1-2)Man(a1-6)]GalNAc
# In short: as §1
# [10] = target: Neu5Ac(a2-3)Gal(b1-4)GlcNAc(b1-3)Gal(b1-4)GlcNAc(b1-3)GalNAc
# In short: as §1
# [11] = target: Neu5Ac(a2-3)Gal(b1-4)GlcNAc(b1-3)Gal(b1-4)GlcNAc(b1-3)[Neu5Ac(a2-3)Gal(b1-4)GlcNAc(b1-3)Gal(b1-4)GlcNAc(b1-6)]GalNAc
# In short: as §1
# [12] = target: Neu5Ac(a2-3)Gal(b1-4)GlcNAc(b1-3)Gal(b1-4)GlcNAc(b1-6)[Gal(b1-3)]GalNAc
# In short: as §1
# [13] = target: Neu5Ac(a2-3)Gal(b1-4)GlcNAc(b1-3)Gal(b1-4)[Fuc(a1-3)]GlcNAc
# In short: as §1
# [14] = target: Neu5Ac(a2-3)Gal(b1-4)GlcNAc(b1-3)GalNAc
# In short: as §1
# [15] = target: Neu5Ac(a2-3)Gal(b1-4)GlcNAc(b1-3)[Neu5Ac(a2-3)Gal(b1-4)GlcNAc(b1-6)]GalNAc
# In short: as §1
# [16] = target: Neu5Ac(a2-3)Gal(b1-4)GlcNAc(b1-6)GalNAc
# In short: as §1
# [17] = target: Neu5Ac(a2-3)Gal(b1-4)GlcNAc(b1-6)[Gal(b1-3)]GalNAc
# In short: as §1
# [18] = target: Neu5Ac(a2-3)Gal(b1-4)GlcNAc(b1-6)[Neu5Ac(a2-3)Gal(b1-3)]GalNAc
# In short: as §1
# [19] = target: Neu5Ac(a2-3)Gal(b1-4)GlcNAc6S
# In short: as §1
# [20] = target: Neu5Ac(a2-3)Gal(b1-4)[Fuc(a1-3)]GlcNAc
# In short: as §1
# [21] = target: Neu5Ac(a2-3)Gal(b1-4)[Fuc(a1-3)]GlcNAc(b1-2)Man
# In short: as §1
# [22] = target: Neu5Ac(a2-3)Gal(b1-4)[Fuc(a1-3)]GlcNAc(b1-3)Gal
# In short: as §1
# [23] = target: Neu5Ac(a2-3)Gal(b1-4)[Fuc(a1-3)]GlcNAc(b1-3)Gal(b1-4)GlcNAc
# In short: as §1
# [24] = target: Neu5Ac(a2-3)Gal(b1-4)[Fuc(a1-3)]GlcNAc(b1-3)Gal(b1-4)[Fuc(a1-3)]GlcNAc(b1-3)Gal(b1-4)[Fuc(a1-3)]GlcNAc
# In short: as §1
# [25] = target: Neu5Ac(a2-3)Gal(b1-4)[Fuc(a1-3)]GlcNAc(b1-3)GalNAc
# In short: as §1
# [26] = target: Neu5Ac(a2-3)Gal(b1-4)[Fuc(a1-3)]GlcNAc(b1-6)[Gal(b1-3)]GalNAc
# In short: as §1
# [27] = target: Neu5Ac(a2-3)Gal(b1-4)[Fuc(a1-3)]GlcNAc(b1-6)[Neu5Ac(a2-3)Gal(b1-3)]GalNAc
# In short: as §1
# [28] = target: Neu5Ac(a2-3)Gal(b1-4)[Fuc(a1-3)]GlcNAc6S
# In short: as §1
# [29] = target: Neu5Ac(a2-3)Gal6S(b1-4)GlcNAc
# In short: as §1
# [30] = target: Neu5Ac(a2-3)Gal6S(b1-4)[Fuc(a1-3)]GlcNAc
# In short: as §1
# [31] = target: Neu5Ac(a2-3)GalNAc
# In short: as §1
# [32] = target: Neu5Ac(a2-3)GalNAc(b1-4)GlcNAc
# In short: as §1
# [33] = target: Neu5Ac(a2-3)[GalNAc(b1-4)]Gal(b1-4)Glc
# In short: as §1
# [34] = target: Neu5Ac(a2-3)[GalNAc(b1-4)]Gal(b1-4)GlcNAc
# In short: as §1
# [35] = target: Neu5Ac(a2-3)[GalNAc(b1-4)]Gal(b1-4)GlcNAc(b1-3)GalNAc
# In short: as §1
# [36] = target: Neu5Ac(a2-3)[Neu5Ac(a2-6)]GalNAc
# In short: as §1
# [37] = target: Neu5Ac(a2-6)Gal
# In short: as §1
# [38] = target: Neu5Ac(a2-6)Gal(b1-3)GlcNAc(b1-3)[Gal(b1-4)GlcNAc(b1-6)]Gal(b1-4)Glc
# In short: as §1
# [39] = target: Neu5Ac(a2-6)Gal(b1-4)Glc
# In short: as §1
# [40] = target: Neu5Ac(a2-6)Gal(b1-4)GlcNAc
# In short: as §1
# [41] = target: Neu5Ac(a2-6)Gal(b1-4)GlcNAc(b1-2)Man
# In short: as §1
# [42] = target: Neu5Ac(a2-6)Gal(b1-4)GlcNAc(b1-2)Man(a1-3)Man(b1-4)GlcNAc(b1-4)GlcNAc
# In short: as §1
# [43] = target: Neu5Ac(a2-6)Gal(b1-4)GlcNAc(b1-2)Man(a1-3)[Gal(b1-4)GlcNAc(b1-2)Man(a1-6)]Man(b1-4)GlcNAc(b1-4)GlcNAc
# In short: as §1
# [44] = target: Neu5Ac(a2-6)Gal(b1-4)GlcNAc(b1-2)Man(a1-3)[GlcNAc(b1-2)Man(a1-6)]Man(b1-4)GlcNAc(b1-4)GlcNAc
# In short: as §1
# [45] = target: Neu5Ac(a2-6)Gal(b1-4)GlcNAc(b1-2)Man(a1-3)[GlcNAc(b1-4)][Neu5Ac(a2-6)Gal(b1-4)GlcNAc(b1-2)Man(a1-6)]Man(b1-4)GlcNAc(b1-4)GlcNAc
# In short: as §1
binder,measurement,setting,value
Thrombomodulin (Mus musculus) (protein) ALAKLQPTGSQCVEHECFALFQGPATFLDASQACQRLQGHLMTVRSSVAADVISLLLSQSSMDLGPWIGLQLPQGCDDPVHLGPLRGFQWVTGDNHTSYSRWARPNDQTAPLCGPLCVTVSTATEAAPGEPAWEEKPCETETQGFLCEFYFTASC,glycan array binding signal (z-score),[1],-0.052
same,glycan array binding signal (z-score),[2],-0.215
same,glycan array binding signal (z-score),[3],-0.026
same,glycan array binding signal (z-score),[4],-0.45
same,glycan array binding signal (z-score),[5],-0.184
same,glycan array binding signal (z-score),[6],-0.369
same,glycan array binding signal (z-score),[7],-0.353
same,glycan array binding signal (z-score),[8],-0.135
same,glycan array binding signal (z-score),[9],-0.222
same,glycan array binding signal (z-score),[10],-0.263
same,glycan array binding signal (z-score),[11],-0.139
same,glycan array binding signal (z-score),[12],-0.192
same,glycan array binding signal (z-score),[13],-0.359
same,glycan array binding signal (z-score),[14],-0.202
same,glycan array binding signal (z-score),[15],0.096
same,glycan array binding signal (z-score),[16],-0.412
same,glycan array binding signal (z-score),[17],-0.321
same,glycan array binding signal (z-score),[18],-0.43
same,glycan array binding signal (z-score),[19],-0.185
same,glycan array binding signal (z-score),[20],-0.163
same,glycan array binding signal (z-score),[21],-0.217
same,glycan array binding signal (z-score),[22],-0.301
same,glycan array binding signal (z-score),[23],0.146
same,glycan array binding signal (z-score),[24],-0.358
same,glycan array binding signal (z-score),[25],0.695
same,glycan array binding signal (z-score),[26],0.37
same,glycan array binding signal (z-score),[27],0.029
same,glycan array binding signal (z-score),[28],-0.017
same,glycan array binding signal (z-score),[29],-0.177
same,glycan array binding signal (z-score),[30],-0.638
same,glycan array binding signal (z-score),[31],-0.261
same,glycan array binding signal (z-score),[32],-0.236
same,glycan array binding signal (z-score),[33],-0.061
same,glycan array binding signal (z-score),[34],-0.32
same,glycan array binding signal (z-score),[35],-0.267
same,glycan array binding signal (z-score),[36],0.085
same,glycan array binding signal (z-score),[37],-0.17
same,glycan array binding signal (z-score),[38],-0.281
same,glycan array binding signal (z-score),[39],-0.171
same,glycan array binding signal (z-score),[40],-0.212
same,glycan array binding signal (z-score),[41],0.2
same,glycan array binding signal (z-score),[42],-0.033
same,glycan array binding signal (z-score),[43],-0.253
same,glycan array binding signal (z-score),[44],-0.113
same,glycan array binding signal (z-score),[45],-0.309
